Test results published in EPA's CvTdb concentration-time database.
Further values from the same series stand in other lists.

Tests used:
Test in all cases: concentration in plasma after dosing
Rat [1] = details: 1 h; dosed: Gemfibrozil; 4.29 mg/kg; iv; Male; Sprague-Dawley
Rat [2] = details: 2 h; dosed: Gemfibrozil; 4.29 mg/kg; iv; Male; Sprague-Dawley
Rat [3] = details: 6 h; dosed: Gemfibrozil; 4.29 mg/kg; iv; Male; Sprague-Dawley
Rat [4] = details: 10 h; dosed: Gemfibrozil; 4.29 mg/kg; iv; Male; Sprague-Dawley
Rat [5] = details: 10 min; dosed: Gemfibrozil; 4.29 mg/kg; iv; Male; Sprague-Dawley
Rat [6] = details: 5 min; dosed: Gemfibrozil; 4.29 mg/kg; iv; Male; Sprague-Dawley
Rat [7] = details: 10 h; dosed: Gemfibrozil; 100 mg/kg; oral; Male; Sprague-Dawley
Rat [8] = details: 0.25 h; dosed: Gemfibrozil; 4.29 mg/kg; iv; Male; Sprague-Dawley
Rat [9] = details: dosed: Gemfibrozil, Male, Sprague-Dawley
Rat [10] = details: 0.5 h; dosed: Gemfibrozil; 4.29 mg/kg; iv; Male; Sprague-Dawley
Rat [11] = details: 10 min; dosed: Gemfibrozil; 4.29 mg/kg; iv; Male; Sprague-Dawley; remark: listed apart in the source
Rat [12] = details: 24 h; dosed: Gemfibrozil; 4.29 mg/kg; iv; Male; Sprague-Dawley
Rat [13] = details: 18 h; dosed: Gemfibrozil; 4.29 mg/kg; iv; Male; Sprague-Dawley
Rat [14] = details: 0.25 h; dosed: Gemfibrozil; 4.29 mg/kg; iv; Male; Sprague-Dawley; remark: listed apart in the source
Rat [15] = details: 2 h; dosed: Gemfibrozil; 4.29 mg/kg; iv; Male; Sprague-Dawley; remark: listed apart in the source
Rat [16] = details: 3 h; dosed: Gemfibrozil; 4.29 mg/kg; iv; Male; Sprague-Dawley
Rat [17] = details: 5 min; dosed: Gemfibrozil; 4.29 mg/kg; iv; Male; Sprague-Dawley; remark: listed apart in the source
Rat [18] = details: 4 h; dosed: Gemfibrozil; 4.29 mg/kg; iv; Male; Sprague-Dawley
Rat [19] = details: 24 h; dosed: Gemfibrozil; 4.29 mg/kg; iv; Male; Sprague-Dawley; remark: listed apart in the source
Rat [20] = details: 15 h; dosed: Gemfibrozil; 4.29 mg/kg; iv; Male; Sprague-Dawley
Rat [21] = details: 18 h; dosed: Gemfibrozil; 4.29 mg/kg; iv; Male; Sprague-Dawley; remark: listed apart in the source
Rat [22] = details: 6 h; dosed: Gemfibrozil; 4.29 mg/kg; iv; Male; Sprague-Dawley; remark: listed apart in the source
Rat [23] = details: 10 h; dosed: Gemfibrozil; 100 mg/kg; oral; Male; Sprague-Dawley; remark: listed apart in the source
Rat [24] = details: 10 h; dosed: Gemfibrozil; 4.29 mg/kg; iv; Male; Sprague-Dawley; remark: listed apart in the source
Rat [25] = details: 1 h; dosed: Gemfibrozil; 4.29 mg/kg; iv; Male; Sprague-Dawley; remark: listed apart in the source
Rat [26] = details: 0.5 h; dosed: Gemfibrozil; 4.29 mg/kg; iv; Male; Sprague-Dawley; remark: listed apart in the source
Rat [27] = details: 15 h; dosed: Gemfibrozil; 100 mg/kg; oral; Male; Sprague-Dawley
Rat [28] = details: 4 h; dosed: Gemfibrozil; 4.29 mg/kg; iv; Male; Sprague-Dawley; remark: listed apart in the source
Rat [29] = details: 15 h; dosed: Gemfibrozil; 4.29 mg/kg; iv; Male; Sprague-Dawley; remark: listed apart in the source
Rat [30] = details: 15 h; dosed: Gemfibrozil; 100 mg/kg; oral; Male; Sprague-Dawley; remark: listed apart in the source
Rat [31] = details: 3 h; dosed: Gemfibrozil; 4.29 mg/kg; iv; Male; Sprague-Dawley; remark: listed apart in the source

Cc1ccc(C)c(OCCCC(C)(C)C(=O)O)c1 [Gemfibrozil]
concentration in plasma (Rat [1]): 81.3 ng/mL
concentration in plasma (Rat [2]): 406 ng/mL
concentration in plasma (Rat [3]): 460 ng/mL
concentration in plasma (Rat [4]): 124 ng/mL
concentration in plasma (Rat [5]): 3680 ng/mL
concentration in plasma (Rat [6]): 15500 ng/mL
concentration in plasma (Rat [7]): 6950 ng/mL
concentration in plasma (Rat [8]): 2700 ng/mL
concentration in plasma (Rat [9]; 5 min, 4.29 mg/kg, iv): 14900 ng/mL
concentration in plasma (Rat [9]; 10 min, 4.29 mg/kg, iv): 2330 ng/mL
concentration in plasma (Rat [9]; 0.25 h, 4.29 mg/kg, iv): 4450 ng/mL
concentration in plasma (Rat [9]; 0.5 h, 4.29 mg/kg, iv): 691 ng/mL
concentration in plasma (Rat [9]; 1 h, 4.29 mg/kg, iv): 554 ng/mL
concentration in plasma (Rat [9]; 1 h, 100 mg/kg, oral): 25000 ng/mL
concentration in plasma (Rat [9]; 2 h, 4.29 mg/kg, iv): 465 ng/mL
concentration in plasma (Rat [9]; 3 h, 4.29 mg/kg, iv): 284 ng/mL
concentration in plasma (Rat [9]; 4 h, 4.29 mg/kg, iv): 236 ng/mL
concentration in plasma (Rat [9]; 6 h, 4.29 mg/kg, iv): 207 ng/mL
concentration in plasma (Rat [9]; 10 h, 4.29 mg/kg, iv): 214 ng/mL
concentration in plasma (Rat [9]; 10 h, 100 mg/kg, oral): 8640 ng/mL
concentration in plasma (Rat [9]; 15 h, 4.29 mg/kg, iv): 114 ng/mL
concentration in plasma (Rat [9]; 15 h, 100 mg/kg, oral): 4190 ng/mL
concentration in plasma (Rat [9]; 18 h, 4.29 mg/kg, iv): 81.2 ng/mL
concentration in plasma (Rat [9]; 24 h, 4.29 mg/kg, iv): 119 ng/mL
concentration in plasma (Rat [10]): 452 ng/mL
concentration in plasma (Rat [11]): 7360 ng/mL
concentration in plasma (Rat [12]): 120 ng/mL
concentration in plasma (Rat [13]): 106 ng/mL
concentration in plasma (Rat [14]): 2730 ng/mL
concentration in plasma (Rat [15]): 166 ng/mL
concentration in plasma (Rat [16]): 92.5 ng/mL
concentration in plasma (Rat [17]): 18700 ng/mL
concentration in plasma (Rat [18]): 514 ng/mL
concentration in plasma (Rat [19]): 72.3 ng/mL
concentration in plasma (Rat [20]): 119 ng/mL
concentration in plasma (Rat [21]): 114 ng/mL
concentration in plasma (Rat [22]): 480 ng/mL
concentration in plasma (Rat [23]): 5000 ng/mL
concentration in plasma (Rat [24]): 146 ng/mL
concentration in plasma (Rat [25]): 70.5 ng/mL
concentration in plasma (Rat [26]): 503 ng/mL
concentration in plasma (Rat [27]): 1460 ng/mL
concentration in plasma (Rat [28]): 543 ng/mL
concentration in plasma (Rat [29]): 278 ng/mL
concentration in plasma (Rat [30]): 7240 ng/mL
concentration in plasma (Rat [31]): 548 ng/mL
